Results as given in the supplement of paper PMC8728848.
The list shows a part of the results.

What was measured:
Test in all cases: glycan array binding signal (z-score within array); higher = stronger binding
Details in all cases: glycan notation: IUPAC condensed, linker removed
[1] = target: Neu5Ac(a2-3)Gal(b1-4)GlcNAc(b1-3)Gal(b1-4)GlcNAc(b1-2)Man(a1-3)[Neu5Ac(a2-3)Gal(b1-4)GlcNAc(b1-3)Gal(b1-4)GlcNAc(b1-2)Man(a1-6)]Man(b1-4)GlcNAc(b1-4)GlcNAc
How it was run: (§1)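 Arrays were curated from the Consortium for Functional Glycomics database, 3228 in total, and kept only where the protein sequence was available. Binding is expressed as a within-array Z-score. This score was averaged across arrays of the same protein sequence at different concentrations or buffers and across linkers, and negative values can be read as non-binding.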

[2] = target: Neu5Ac(a2-3)Gal(b1-4)GlcNAc(b1-3)Gal(b1-4)GlcNAc(b1-3)Gal(b1-4)GlcNAc
How it was run: as §1

[3] = target: Neu5Ac(a2-3)Gal(b1-4)GlcNAc(b1-3)Gal(b1-4)GlcNAc(b1-3)Gal(b1-4)GlcNAc(b1-2)Man(a1-3)[Neu5Ac(a2-3)Gal(b1-4)GlcNAc(b1-3)Gal(b1-4)GlcNAc(b1-3)Gal(b1-4)GlcNAc(b1-2)Man(a1-6)]GalNAc
How it was run: as §1

[4] = target: Neu5Ac(a2-3)Gal(b1-4)GlcNAc(b1-3)Gal(b1-4)GlcNAc(b1-3)GalNAc
How it was run: as §1

[5] = target: Neu5Ac(a2-3)Gal(b1-4)GlcNAc(b1-3)Gal(b1-4)GlcNAc(b1-3)[Neu5Ac(a2-3)Gal(b1-4)GlcNAc(b1-3)Gal(b1-4)GlcNAc(b1-6)]GalNAc
How it was run: as §1

[6] = target: Neu5Ac(a2-3)Gal(b1-4)GlcNAc(b1-3)Gal(b1-4)GlcNAc(b1-6)[Gal(b1-3)]GalNAc
How it was run: as §1

[7] = target: Neu5Ac(a2-3)Gal(b1-4)GlcNAc(b1-3)Gal(b1-4)[Fuc(a1-3)]GlcNAc
How it was run: as §1

[8] = target: Neu5Ac(a2-3)Gal(b1-4)GlcNAc(b1-3)GalNAc
How it was run: as §1

[9] = target: Neu5Ac(a2-3)Gal(b1-4)GlcNAc(b1-3)[Neu5Ac(a2-3)Gal(b1-4)GlcNAc(b1-6)]GalNAc
How it was run: as §1

[10] = target: Neu5Ac(a2-3)Gal(b1-4)GlcNAc(b1-6)GalNAc
How it was run: as §1

[11] = target: Neu5Ac(a2-3)Gal(b1-4)GlcNAc(b1-6)[Gal(b1-3)]GalNAc
How it was run: as §1

[12] = target: Neu5Ac(a2-3)Gal(b1-4)GlcNAc(b1-6)[Neu5Ac(a2-3)Gal(b1-3)]GalNAc
How it was run: as §1

[13] = target: Neu5Ac(a2-3)Gal(b1-4)GlcNAc6S
How it was run: as §1

[14] = target: Neu5Ac(a2-3)Gal(b1-4)[Fuc(a1-3)]GlcNAc
How it was run: as §1

[15] = target: Neu5Ac(a2-3)Gal(b1-4)[Fuc(a1-3)]GlcNAc(b1-2)Man
How it was run: as §1

[16] = target: Neu5Ac(a2-3)Gal(b1-4)[Fuc(a1-3)]GlcNAc(b1-3)Gal
How it was run: as §1

[17] = target: Neu5Ac(a2-3)Gal(b1-4)[Fuc(a1-3)]GlcNAc(b1-3)Gal(b1-4)GlcNAc
How it was run: as §1

[18] = target: Neu5Ac(a2-3)Gal(b1-4)[Fuc(a1-3)]GlcNAc(b1-3)Gal(b1-4)[Fuc(a1-3)]GlcNAc(b1-3)Gal(b1-4)[Fuc(a1-3)]GlcNAc
How it was run: as §1

[19] = target: Neu5Ac(a2-3)Gal(b1-4)[Fuc(a1-3)]GlcNAc(b1-3)GalNAc
How it was run: as §1

[20] = target: Neu5Ac(a2-3)Gal(b1-4)[Fuc(a1-3)]GlcNAc(b1-6)[Gal(b1-3)]GalNAc
How it was run: as §1

[21] = target: Neu5Ac(a2-3)Gal(b1-4)[Fuc(a1-3)]GlcNAc(b1-6)[Neu5Ac(a2-3)Gal(b1-3)]GalNAc
How it was run: as §1

[22] = target: Neu5Ac(a2-3)Gal(b1-4)[Fuc(a1-3)]GlcNAc6S
How it was run: as §1

[23] = target: Neu5Ac(a2-3)Gal6S(b1-4)GlcNAc
How it was run: as §1

[24] = target: Neu5Ac(a2-3)Gal6S(b1-4)[Fuc(a1-3)]GlcNAc
How it was run: as §1

Neu5Ac(a2-3)GalNAc = target: Neu5Ac(a2-3)GalNAc
How it was run: as §1

[25] = target: Neu5Ac(a2-3)GalNAc(b1-4)GlcNAc
How it was run: as §1

[26] = target: Neu5Ac(a2-3)[GalNAc(b1-4)]Gal(b1-4)Glc
How it was run: as §1

[27] = target: Neu5Ac(a2-3)[GalNAc(b1-4)]Gal(b1-4)GlcNAc
How it was run: as §1

[28] = target: Neu5Ac(a2-3)[GalNAc(b1-4)]Gal(b1-4)GlcNAc(b1-3)GalNAc
How it was run: as §1

[29] = target: Neu5Ac(a2-3)[Neu5Ac(a2-6)]GalNAc
How it was run: as §1

Neu5Ac(a2-6)Gal = target: Neu5Ac(a2-6)Gal
How it was run: as §1

[30] = target: Neu5Ac(a2-6)Gal(b1-3)GlcNAc(b1-3)[Gal(b1-4)GlcNAc(b1-6)]Gal(b1-4)Glc
How it was run: as §1

Neu5Ac(a2-6)Gal(b1-4)Glc = target: Neu5Ac(a2-6)Gal(b1-4)Glc
How it was run: as §1

[31] = target: Neu5Ac(a2-6)Gal(b1-4)GlcNAc
How it was run: as §1

[32] = target: Neu5Ac(a2-6)Gal(b1-4)GlcNAc(b1-2)Man
How it was run: as §1

[33] = target: Neu5Ac(a2-6)Gal(b1-4)GlcNAc(b1-2)Man(a1-3)Man(b1-4)GlcNAc(b1-4)GlcNAc
How it was run: as §1

[34] = target: Neu5Ac(a2-6)Gal(b1-4)GlcNAc(b1-2)Man(a1-3)[Gal(b1-4)GlcNAc(b1-2)Man(a1-6)]Man(b1-4)GlcNAc(b1-4)GlcNAc
How it was run: as §1

[35] = target: Neu5Ac(a2-6)Gal(b1-4)GlcNAc(b1-2)Man(a1-3)[GlcNAc(b1-2)Man(a1-6)]Man(b1-4)GlcNAc(b1-4)GlcNAc
How it was run: as §1

B1: MGL2 (Mus musculus), Q8JZN1 (protein)
chain: MTMRYENFQNLEREEKNQEMRNGDKKGGMESPKFALIPSQSFLWRILSWTHLLLFSLGLSLLLLVVISVIGSQNSQLRRDLGTLRAILDNTTSKIKAEFQSLDSRADNFEKGISSLKVDVEDHRQELQAGRDLSQKVTSLESTLEKREQALKTDLSDLTDHVQQLETDLKALTCQLANLKNNGSEVACCPLHWTEHEGSCYWFSESEKSWPEADKYCRLENSHLVVVNSLEEQNFLQNRLANVLSWMGLTDQNGPWRWVDGTDFDKGFKNWRPLQPDNWHGHMLGGGEDCAHFSYDGRWNDDVCQRHYHWICETELGKASSAHSPQLIASVP
glycan array binding signal (z-score) [1]: 0.166 | glycan array binding signal (z-score) [2]: -0.179 | glycan array binding signal (z-score) [3]: 0.431 | glycan array binding signal (z-score) [4]: -0.204 | glycan array binding signal (z-score) [5]: -0.027 | glycan array binding signal (z-score) [6]: -0.096 | glycan array binding signal (z-score) [7]: -0.193 | glycan array binding signal (z-score) [8]: -0.189 | glycan array binding signal (z-score) [9]: -0.145 | glycan array binding signal (z-score) [10]: 0.616 | glycan array binding signal (z-score) [11]: -0.046 | glycan array binding signal (z-score) [12]: -0.271 | glycan array binding signal (z-score) [13]: -0.289 | glycan array binding signal (z-score) [14]: -0.231 | glycan array binding signal (z-score) [15]: -0.115 | glycan array binding signal (z-score) [16]: -0.247 | glycan array binding signal (z-score) [17]: -0.189 | glycan array binding signal (z-score) [18]: -0.059 | glycan array binding signal (z-score) [19]: -0.085 | glycan array binding signal (z-score) [20]: -0.139 | glycan array binding signal (z-score) [21]: -0.036 | glycan array binding signal (z-score) [22]: -0.25 | glycan array binding signal (z-score) [23]: -0.227 | glycan array binding signal (z-score) [24]: -0.203 | glycan array binding signal (z-score) (Neu5Ac(a2-3)GalNAc): -0.214 | glycan array binding signal (z-score) [25]: -0.269 | glycan array binding signal (z-score) [26]: -0.141 | glycan array binding signal (z-score) [27]: -0.207 | glycan array binding signal (z-score) [28]: -0.236 | glycan array binding signal (z-score) [29]: -0.23 | glycan array binding signal (z-score) (Neu5Ac(a2-6)Gal): -0.168 | glycan array binding signal (z-score) [30]: -0.183 | glycan array binding signal (z-score) (Neu5Ac(a2-6)Gal(b1-4)Glc): -0.144 | glycan array binding signal (z-score) [31]: -0.205 | glycan array binding signal (z-score) [32]: -0.19 | glycan array binding signal (z-score) [33]: -0.247 | glycan array binding signal (z-score) [34]: -0.14 | glycan array binding signal (z-score) [35]: -0.285
